According to PubChem BioAssay AID1508642 (National Center for Advancing Translational Sciences (NCATS), 2021):
Out of some 43,000 compounds screened, about 200 (0.47%) were called active. Another 12% or so got no clear call; they are omitted. Calls come from the whole dose curve; as a rule, active = well fitted cell-killing curve with a large enough effect; inconclusive = small, poorly fitted or top-dose-only effect, or effect the other way; inactive = flat fitted curve, though single readings scatter. The list shows a part of the results.

Experiment: Cell viability qHTS assay in S16 Pmp22-F2sN cells; note: nearly all actives have a fitted effect of over 65% in size
Details: S16 Pmp22-F2sN Schwann cells (luciferase reporters placed in the Pmp22 gene) viability, CellTiter-Glo, 24 h; series mostly up to 57.5 µM; activity change, negative = cytotoxicity: at the top concentration
Outline: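 S16 Schwann cells carrying the Pmp22-F2sN reporter, seeded in 1536-well format, were exposed to library compounds for 24 h at 37C. Viability was read as CellTiter-Glo luminescence after 15 min at room temperature.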
% is set by controls: 0 for no effect and ±100 for the full control effect.

Structure (SMILES)	activity change, negative = cytotoxicity
Cc1noc(NS(=O)(=O)c2ccc(NC(=O)c3ccc(Br)cc3)cc2)c1C	inactive: -3.89%
COC(=O)c1nnn(CC(=O)NC(=O)Nc2ccccc2F)c1C(=O)OC	inactive: 10.8%
Cc1c(Cl)cccc1NC(=O)c1ccc2nc(C(C)C)oc2c1	inactive: 2.42%
Cc1c(Cl)cccc1-n1c(CCC(=O)O)ccc1-c1cccs1	inactive: 0.0616%
CCSc1nc2n(n1)C(c1ccc(CC)cc1)C(C(=O)Nc1ccccc1OC)=C(C)N2 (stereo not drawn)	inactive: 19%
CCC(C(=O)N1CCN(c2cc(Cl)ccc2C)CC1)n1nc(C)n2c(cc3occc32)c1=O (stereo not drawn)	inactive: -10.5%
COc1ccc(Br)cc1CNC(=O)C(C)n1nc(C)n2c(cc3occc32)c1=O (stereo not drawn)	inactive: -0.0673%
CCc1cccc(NC(=O)CN2C(=O)CCc3cc(S(=O)(=O)N4CCOCC4)ccc32)c1	inactive: 22.6%
COc1cc(CNCc2c(C(=O)O)c(C)n(Cc3cccc(Cl)c3)c2C)cc(OC)c1OC	inactive: 4.04%
CCc1ccc2nc(N3CCC(C(=O)O)CC3)sc2c1	inactive: -2.96%
Cc1ccc(CN2CCSc3ccc(C(=O)Nc4ccc(F)cc4F)cc32)cc1	inactive: -1.86%
Cc1ccc2oc(C(=O)Nc3nnc(CC(C)C)s3)cc(=O)c2c1	inactive: -23.9%
CCc1ccc(NC(=O)CSc2nccn2C2CCCC2)cc1	inactive: -1.96%
Cc1ccc(C)c(S(=O)(=O)c2cnc(SCC(=O)Nc3ccc(F)cc3F)[nH]c2=O)c1	inactive: 0.496%
Cc1cc2c(=O)c(C(=O)c3ccncc3)cn(CC(=O)Nc3cccc(C)c3C)c2cc1C	inactive: 10.8%
CC(NC(=O)CN(C)S(=O)(=O)c1ccc2c(c1)c(=O)n(C)c(=O)n2C)c1ccccc1 (stereo not drawn)	inactive: 1.42%
Cn1cc(S(=O)(=O)N2CCCCC2)cc1C(=O)N1CCN(c2ccc(F)cc2)CC1	inactive: 11.9%
Cc1cc(=O)n(CC(=O)NCCC(C)C)c2c1c(C)nn2C	inactive: 7.47%
Cc1ccc2c(c1)c(=O)c(C(=O)c1ccncc1)cn2CC(=O)Nc1c(C)cccc1C	inactive: 8.23%
Cc1cccc(NC(=O)Cn2c(=O)oc3cc(S(=O)(=O)NCc4ccccc4)ccc32)c1	inactive: -10.4%
Cc1ccc2nc(N(Cc3cccnc3)C(=O)C3CCCCC3)sc2c1	inactive: 2.79%
COc1ccc(Br)cc1C1CC(=O)Nc2c1c(C)nn2-c1nc(C)cc(C)n1 (stereo not drawn)	inactive: 0.373%
CCn1cc(C(=O)OCC(=O)Nc2cc(Cl)ccc2OC)c(=O)c2ccc(C)nc21	inactive: -1.08%
Cc1c(C(N)=O)nnn1-c1ccc(Br)cc1	inactive: 10.7%
CCN(CC)CCNC(=O)C1CCCN(c2ncnc3onc(C)c23)C1 (stereo not drawn)	inactive: -4.19%

Structure (SMILES)	activity change, negative = cytotoxicity
Cc1ccc(C)c(-c2csc(-c3c(N)c(C(=O)c4ccc5c(c4)OCO5)n4ccccc34)n2)c1	inactive: -3.73%
COc1ccc(CCNC(=O)Cn2nc(C)n3c(cc4occc43)c2=O)cc1OC	inactive: -2.68%
CCOC(=O)c1c(S(=O)(=O)N2CCCC(C(=O)N3CCN(c4ccc(F)cc4)CC3)C2)c(C)n(C)c1C (stereo not drawn)	inactive: -0.852%
COc1ccc(CCNC(=O)Cn2ncc3c(C)n(Cc4ccccc4F)c(C)c3c2=O)cc1OC	inactive: 3.12%
CCOc1ccc(NC(=O)N(Cc2c[nH]c3ccccc23)C2CCCCC2)cc1	inactive: 5.13%
Nc1cc(=O)nc(SCC(=O)Nc2ccc(F)cc2)n1-c1ccc(Cl)cc1	inactive: -6.17%
COc1cc(OC)c(NC(=O)CCn2cnc3onc(-c4ccc(F)cc4)c3c2=O)cc1Cl	inactive: -19.4%
CCCCNC(=O)c1[nH]c2ccccc2c1Sc1ccc(C)cc1	inactive: 15.2%
Cc1ccc(CNCc2c(C(=O)O)n(Cc3ccccc3C)c3cc(C)ccc23)cc1	inactive: -0.791%
COc1ccc(C2(CNC(=O)C(=O)Nc3cccc(C(F)(F)F)c3)CCCC2)cc1OC	inactive: -5.96%
Cc1ccc(S(=O)(=O)Nc2cccc(-c3ccc(N4CCCCC4)nn3)c2)s1	inactive: -16.6%
CC(=O)c1cccc(NC(=O)c2nc(-c3ccc(C)cc3)n3c2CCCCC3)c1	inactive: -15.9%
Cc1cccc(NC(=O)C2CCCN(S(=O)(=O)c3cccc4nonc34)C2)c1 (stereo not drawn)	inactive: 2.1%
O=C(NCCc1ccc(Cl)cc1)c1ccc(CSCc2ccccc2Cl)o1	inactive: -12.1%
Cc1ccc(NC(=O)C(=O)NCc2ccc(Cl)cc2)cc1	inactive: 3.21%
CCOC(=O)C(C)Sc1nnc2ccc3ccccc3n12 (stereo not drawn)	inactive: 14.5%
COc1ccccc1OCC(=O)Nc1nc2c(s1)CC(C)CC2 (stereo not drawn)	inactive: 0.558%
Cc1ccc2nc(-c3ccc(Cl)cc3)cc(C(=O)OCC(=O)c3ccccc3)c2c1	inactive: 1.79%
COc1ccc(C(=O)NCC(c2ccc(N(C)C)cc2)N2CCCC2)c(OC)c1 (stereo not drawn)	inactive: 5.55%
Cc1cccc(-c2nc(CSc3nncn4c3cc3oc(C)cc34)c(C)o2)c1	inactive: -1.09%
CCC(Cn1nnc2ccccc2c1=O)NC(=O)Nc1ccc(C)cc1C (stereo not drawn)	inactive: -3.65%
COc1ccc(NC(=O)c2sc3nc4c(cc3c2N)CN(Cc2ccccc2)CC4)cc1	inactive: 2.16%
COc1ccc(C(=O)NCCc2sc(-c3ccc(F)cc3)nc2C)cc1OC	inactive: -18.7%
CC1CCC(NC(=O)C2(C)Cc3ccccc3C(=O)N2Cc2ccc(F)cc2)CC1 (stereo not drawn)	inactive: 25.1%
Cc1ccc(CNC(=O)CCc2c(C)nc3nc(CNC(=O)OC(C)(C)C)nn3c2C)cc1	inactive: -17%

Structure (SMILES)	activity change, negative = cytotoxicity
CC(=O)c1cccc(Nc2ccc3cc(S(=O)(=O)N4CCC(C)CC4)ccc3n2)c1	inactive: -6.04%
CCCNC(=O)CCNS(=O)(=O)c1ccc2c(c1)c(=O)n(C)c(=O)n2C	inactive: 2.9%
CCC(=O)N1CCc2cc(S(=O)(=O)NCCC(=O)Nc3ccc(C)cc3)ccc21	inactive: -7.67%
COc1cc(C(=O)n2nc(-c3ccco3)nc2NCc2ccc(Cl)cc2)cc(OC)c1OC	inactive: 1.6%
Cc1cccc(NCc2nc3ccccc3n2CCOc2ccccc2C)c1	inactive: -17.1%
CCC(=O)N1CCc2cc(S(=O)(=O)NC(CC(C)C)C(=O)Nc3cc(C)ccc3OC)ccc21 (stereo not drawn)	inactive: -19%
CCC12CN3CC(C)(CN(C1)C3c1c[nH]c3ccccc13)C2=O (stereo not drawn)	inactive: 0.707%
CC1=C(C(=O)Nc2ccc(C)cc2C)C(c2ccc(O)cc2)n2nnnc2N1 (stereo not drawn)	inactive: -18.1%
COc1ccc(/C=C\c2onc(C)c2S(=O)(=O)N2CCC(C(=O)Nc3ccc(C)cc3C)CC2)cc1	inactive: 0.588%
CCc1ccc(NC(=O)CSC2=Nc3ccccc3C3=NC(CCC(=O)NCCc4ccccc4)C(=O)N23)cc1 (stereo not drawn)	inactive: -19.2%
CCS(=O)(=O)c1ncc(N(Cc2ccco2)Cc2sccc2C)c(C(=O)Nc2ccc(C)cc2C)n1	inactive: 2.25%
CCCOc1ccc(C(=O)Nc2cccc(NC(=O)c3cccc(Cl)c3)c2)cc1	inactive: -0.834%
COc1ccc(-c2cc(C(F)(F)F)nc(SCC(=O)NCc3ccc(OC)c(OC)c3)n2)cc1	inactive: 4.78%
CCc1nnc2c(Nc3cccc(C(C)=O)c3)nc3ccccc3n12	inactive: 2.2%
CCCCc1nn2c(=O)cc(COC(=O)c3cccc(OC)c3)nc2s1	inactive: -21.2%
COc1ccccc1N(CC(=O)NCCSCc1ccccc1)S(C)(=O)=O	inactive: -1.93%
CCCCc1nn2c(=O)cc(COC(=O)COc3ccc(C)cc3)nc2s1	inactive: 15.2%
COc1ccc(NC(=O)CN2C(=O)COc3ccc(S(=O)(=O)Nc4ccccc4)cc32)cc1	inactive: -8.53%
CCOC(=O)CN1C(=O)c2ccccc2Sc2ncccc21	inactive: -2.41%
CCOc1ccc(C(=O)NCc2ccc3c(c2)CCN3C(=O)c2ccccc2)cc1	inactive: -17.9%
COc1ccc(-c2onc(C)c2C)cc1S(=O)(=O)NCc1ccco1	inactive: -8.49%
CCc1ccc(CNC(=O)c2ccc3c(c2)nc2n3CCC(C)C2)cc1 (stereo not drawn)	inactive: -3.6%
COc1cccc(C(=O)Nc2cccc(OCc3cc(=O)n4cc(C)ccc4n3)c2)c1	inactive: 7.76%
CCOc1cc(C2c3c(oc4ccc(F)cc4c3=O)C(=O)N2Cc2ccc(C)cc2)ccc1O (stereo not drawn)	inactive: -6.13%
COc1ccc(C2CC(=O)c3c([nH]c(C(=O)OCc4ccccc4)c3C)C2)cc1OC (stereo not drawn)	inactive: -3.78%

Structure (SMILES)	activity change, negative = cytotoxicity
CCCCNC(=O)CSc1nc2n[nH]c(C)c2c(=N)n1-c1ccccc1CC	inactive: -21.2%
O=C(COc1ccccc1F)Nc1nnc(S(=O)(=O)N2CCCCCC2)s1	inactive: -2.24%
O=C(NCc1ccc(Cl)cc1)C1CCCN(c2ncnc3onc(-c4ccc(F)cc4)c23)C1 (stereo not drawn)	inactive: 6.84%
Cc1cccc(NC(=O)c2c(Br)sc3c2CCCC3)c1	inactive: -1.32%
COc1ccc(Nc2nnc(-c3ccc(C)c(S(=O)(=O)N4CCOCC4)c3)c3ccccc23)cc1	inactive: -19%
CCCCNC(=O)C1CCN(Cc2nc(-c3ccc(OC)c(OC)c3)oc2C)CC1	inactive: 19.4%
Cc1ccccc1Cc1c(C)nc2nc(SCC(=O)NC(C)c3ccccc3)nn2c1C (stereo not drawn)	inactive: -1.7%
CCC1CN(C(=O)Nc2cccc3c2CCCC3)c2cc(C)ccc2O1 (stereo not drawn)	inactive: 0.672%
CCOC(=O)c1c(C)oc2nc(C)nc(NCCCN3CCN(c4cccc(C)c4)C(C)C3)c12 (stereo not drawn)	inactive: 0.962%
CCOc1ccc(-c2ccc(CO)o2)cc1N	inactive: 3.04%
CCc1ccc(C2c3c(n[nH]c3C)C(=O)N2c2ccc(C)cc2)cc1 (stereo not drawn)	inactive: 7.97%
O=C(NC1CCCC1)c1ccc2c(c1)N(Cc1ccc(F)cc1)C(=O)c1ccccc1S2	inactive: -7.26%
Cc1ccc(CNC(=O)CN(c2cc(C)cc(C)c2)S(=O)(=O)c2c(C)[nH]c(=O)[nH]c2=O)cc1	inactive: 2.53%
Cc1ccc(N2CCN(C(=O)c3nn(C)c4c3CSc3ccccc3-4)CC2C)cc1 (stereo not drawn)	inactive: 12.1%
COc1ccc(-c2noc(-c3ccccc3NC(=O)c3cc(OC)c(OC)c(OC)c3)n2)cc1	inactive: -0.281%
O=S(=O)(Nc1nc2n(n1)C(c1ccccc1)C=C(c1ccc(Cl)cc1)N2)c1ccccc1 (stereo not drawn)	inactive: -0.158%
COc1ccc(NC(=O)C(Cc2ccccc2)n2cccc2)c(OC)c1 (stereo not drawn)	inactive: -0.586%
CC(C)CCNC(=O)CSc1nc2ccsc2c(=O)n1Cc1ccccc1Cl	inactive: 1.05%
COc1ccc(CCNC(=O)C(=O)NCC(c2cccs2)S(=O)(=O)c2ccccc2)cc1 (stereo not drawn)	inactive: 0.569%
Cc1ccc(SCC(=O)Nc2ccc3oc(-c4cccc(C)c4)nc3c2)cc1	inactive: 3.26%
Cc1ccc(Cl)cc1NC(=O)CCS(=O)(=O)c1ccc(Br)s1	inactive: 13%
CCOC(=O)c1noc2ncn(CC(=O)O)c(=O)c12	inactive: 22.7%
CCN1C(=O)CC(C(=O)Nc2ccc(OC)cc2)SC1=Nc1ccc(C)c(C)c1 (stereo not drawn)	inactive: 7.64%
